Assay results published in patent US20220002403A1.

Target: human ILT4 haplotype 5 expressed on mouse 3A9 T cells (human), Q8N423
Experiment: cell-based or functional assay

Sequence of human ILT4 haplotype 5 expressed on mouse 3A9 T cells (human), Q8N423 (Q8N423 other isoform, or with tags, fused parts or gaps): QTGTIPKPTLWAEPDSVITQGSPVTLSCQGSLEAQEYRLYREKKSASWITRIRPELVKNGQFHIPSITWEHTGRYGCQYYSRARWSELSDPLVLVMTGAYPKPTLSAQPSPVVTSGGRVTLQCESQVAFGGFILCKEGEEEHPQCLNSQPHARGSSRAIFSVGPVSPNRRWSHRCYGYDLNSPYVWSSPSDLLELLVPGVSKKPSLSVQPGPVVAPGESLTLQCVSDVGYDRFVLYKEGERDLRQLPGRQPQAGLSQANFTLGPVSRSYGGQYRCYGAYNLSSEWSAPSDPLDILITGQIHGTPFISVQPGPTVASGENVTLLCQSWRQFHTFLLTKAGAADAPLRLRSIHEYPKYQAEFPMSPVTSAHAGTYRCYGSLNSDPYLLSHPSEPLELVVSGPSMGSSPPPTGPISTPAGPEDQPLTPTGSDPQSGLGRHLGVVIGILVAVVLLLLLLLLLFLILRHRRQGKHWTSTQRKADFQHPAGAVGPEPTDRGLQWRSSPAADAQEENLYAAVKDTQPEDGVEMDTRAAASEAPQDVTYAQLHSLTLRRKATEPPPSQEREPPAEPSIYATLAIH

EC50 (IL-2 Repression Assay: rescue of IL-2 release from anti-CD3 stimulated ILT4 3A9 T cell transfectants, ELISA): 0.26 µg/mL
B1: 3G7 (antibody)
heavy: EVQLVESGGGVVQPGRSLRLSCAASGFTFSSYAMHWVRQAPGKGLEWVAVISYDGSNKYYADSVKGRFTISRDNSKNTLYLQMNSLRAEDTAVYYCARVGEWIQLWSPFDYWGQGTLVTVSSASTKGPSVFPLAPCSRSTSESTAALGCLVKDYFPEPVTVSWNSGALTSGVHTFPAVLQSSGLYSLSSVVTVPSSSLGTKTYTCNVDHKPSNTKVDKRV[human IgG4 Fc with S228P (EU numbers) not spelt out]
light: DIQMTQSPSSVSASVGDRVTITCRASQGISSWLAWYQQKPGKAPKFLIYAASSLQSGVPSKFSGSGSGTDFTLTISSLQPEDFATYYCQQYNSYPPTFGGGTKVEIKRTVAAPSVFIFPPSDEQLKSGTASVVCLLNNFYPREAKVQWKVDNALQSGNSQESVTEQDSKDSTYSLSSTLTLSKADYEKHKVYACEVTHQGLSSPVTKSFNRGEC
